# Experimental data published in the supplement of paper PMC8728848.
# The other results are listed elsewhere or left out.
# B1: DC-ASGPR L+GEE (Homo sapiens) (protein)
# chain: MTRTYENFQYLENKVKVQGFKNGPLPLQSLLQRLRSGPCHLLLSLGLGLLLLVIICVVGFQNSKFQRDLVTLRTDFSNFTSNTVAEIQALTSQGSSLEETIASLKAEVEGFKQERQAGVSELQEHTTQKAHLGHCPHCPSVCVPVHSEMLLRVQQLVQDLKKLTCQVATLNNNGEEASTEGTCCPVNWVEHQDSCYWFSHSGMSWAEAEKYCQLKNAHLVVINSREEQNFVQKYLGSAYTWMGLSDPEGAWKWVDGTDYATGFQNWKPGQPDDWQGHGLGGGEDCAHFHPDGRWNDDVCQRPYHWVCEAGLGQTSQESH
# Tests used:
# Assay in all cases: glycan array binding signal (z-score within array); higher = stronger binding
# Details in all cases: glycan notation: IUPAC condensed, linker removed
# [1] = target: Neu5Ac(a2-6)GlcNAc(b1-4)GlcNAc(b1-4)GlcNAc
# Summary of the method: (§1)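 Glycan array data came from 3228 arrays in the Consortium for Functional Glycomics database, and only arrays with an available protein sequence were kept. Glycan names were put into IUPAC-condensed notation, and columns mapping to the same glycan were averaged. The binding signal is a within-array Z-score, averaged across arrays of one protein sequence run at different concentrations or buffers and across linkers. A negative Z-score can be read as non-binding.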
# Neu5Ac(a2-8)Neu5Ac = target: Neu5Ac(a2-8)Neu5Ac
# Summary of the method: as §1
# [2] = target: Neu5Ac(a2-8)Neu5Ac(a2-3)Gal(b1-3)GalNAc(b1-4)[Neu5Ac(a2-3)]Gal(b1-4)Glc
# Summary of the method: as §1
# [3] = target: Neu5Ac(a2-8)Neu5Ac(a2-3)Gal(b1-3)GalNAc(b1-4)[Neu5Ac(a2-8)Neu5Ac(a2-3)]Gal(b1-4)Glc
# Summary of the method: as §1
# [4] = target: Neu5Ac(a2-8)Neu5Ac(a2-3)Gal(b1-4)Glc
# Summary of the method: as §1
# [5] = target: Neu5Ac(a2-8)Neu5Ac(a2-3)Gal(b1-4)GlcNAc
# Summary of the method: as §1
# [6] = target: Neu5Ac(a2-8)Neu5Ac(a2-3)[Gal(b1-3)GalNAc(b1-4)]Gal(b1-4)Glc
# Summary of the method: as §1
# [7] = target: Neu5Ac(a2-8)Neu5Ac(a2-3)[GalNAc(b1-4)]Gal(b1-4)Glc
# Summary of the method: as §1
# [8] = target: Neu5Ac(a2-8)Neu5Ac(a2-8)Neu5Ac
# Summary of the method: as §1
# [9] = target: Neu5Ac(a2-8)Neu5Ac(a2-8)Neu5Ac(a2-3)Gal(b1-4)Glc
# Summary of the method: as §1
# [10] = target: Neu5Ac(a2-8)Neu5Ac(a2-8)Neu5Ac(a2-3)[Gal(b1-3)GalNAc(b1-4)]Gal(b1-4)Glc
# Summary of the method: as §1
# [11] = target: Neu5Ac(a2-8)Neu5Ac(a2-8)Neu5Ac(a2-3)[GalNAc(b1-4)]Gal(b1-4)Glc
# Summary of the method: as §1
# [12] = target: Neu5Ac(a2-8)Neu5Ac(a2-8)Neu5Ac(a2-8)Neu5Ac(a2-3)[GalNAc(b1-4)]Gal(b1-4)Glc
# Summary of the method: as §1
# [13] = target: Neu5Ac(a2-8)Neu5Gc(a2-3)Gal(b1-4)GlcNAc
# Summary of the method: as §1
# [14] = target: Neu5Ac(b2-6)Gal(b1-4)GlcNAc
# Summary of the method: as §1
# Neu5Ac(b2-6)GalNAc = target: Neu5Ac(b2-6)GalNAc
# Summary of the method: as §1
# [15] = target: Neu5Ac9Ac(a2-3)Gal(b1-3)GlcNAc
# Summary of the method: as §1
# [16] = target: Neu5Ac9Ac(a2-3)Gal(b1-4)GlcNAc
# Summary of the method: as §1
# [17] = target: Neu5Ac9Ac(a2-6)Gal(b1-4)GlcNAc
# Summary of the method: as §1
# [18] = target: Neu5Gc(a2-3)Gal(b1-3)GlcNAc
# Summary of the method: as §1
# [19] = target: Neu5Gc(a2-3)Gal(b1-3)[Fuc(a1-4)]GlcNAc
# Summary of the method: as §1
# Neu5Gc(a2-3)Gal(b1-4)Glc = target: Neu5Gc(a2-3)Gal(b1-4)Glc
# Summary of the method: as §1
# [20] = target: Neu5Gc(a2-3)Gal(b1-4)GlcNAc
# Summary of the method: as §1
# [21] = target: Neu5Gc(a2-3)Gal(b1-4)GlcNAc(b1-3)Gal(b1-4)GlcNAc(b1-2)Man(a1-3)[Neu5Gc(a2-3)Gal(b1-4)GlcNAc(b1-3)Gal(b1-4)GlcNAc(b1-2)Man(a1-6)]Man(b1-4)GlcNAc(b1-4)GlcNAc
# Summary of the method: as §1
# [22] = target: Neu5Gc(a2-3)Gal(b1-4)[Fuc(a1-3)]GlcNAc
# Summary of the method: as §1
# [23] = target: Neu5Gc(a2-6)Gal(b1-4)GlcNAc
# Summary of the method: as §1
# Neu5Gc(a2-6)GalNAc = target: Neu5Gc(a2-6)GalNAc
# Summary of the method: as §1
# [24] = target: Neu5Gc(a2-8)Neu5Ac(a2-3)Gal(b1-4)GlcNAc
# Summary of the method: as §1
# [25] = target: Neu5Gc(a2-8)Neu5Gc(a2-3)Gal(b1-4)GlcNAc
# Summary of the method: as §1
# [26] = target: Neu5Gc(a2-8)Neu5Gc(a2-3)Gal(b1-4)GlcNAc(b1-3)Gal(b1-4)GlcNAc
# Summary of the method: as §1
# [27] = target: Neu5Gc(a2-8)Neu5Gc(a2-6)Gal(b1-4)GlcNAc
# Summary of the method: as §1
# [28] = target: Neu5Gc(b2-6)Gal(b1-4)GlcNAc
# Summary of the method: as §1
binder,measurement,setting,value
B1,glycan array binding signal (z-score),[1],-0.507
same,glycan array binding signal (z-score),Neu5Ac(a2-8)Neu5Ac,-0.098
same,glycan array binding signal (z-score),[2],-0.654
same,glycan array binding signal (z-score),[3],-0.084
same,glycan array binding signal (z-score),[4],-0.07
same,glycan array binding signal (z-score),[5],-0.433
same,glycan array binding signal (z-score),[6],0.544
same,glycan array binding signal (z-score),[7],1.13
same,glycan array binding signal (z-score),[8],-0.128
same,glycan array binding signal (z-score),[9],0.408
same,glycan array binding signal (z-score),[10],-0.246
same,glycan array binding signal (z-score),[11],0.514
same,glycan array binding signal (z-score),[12],0.888
same,glycan array binding signal (z-score),[13],-0.496
same,glycan array binding signal (z-score),[14],-0.17
same,glycan array binding signal (z-score),Neu5Ac(b2-6)GalNAc,-0.359
same,glycan array binding signal (z-score),[15],-0.517
same,glycan array binding signal (z-score),[16],0.24
same,glycan array binding signal (z-score),[17],-0.41
same,glycan array binding signal (z-score),[18],-0.017
same,glycan array binding signal (z-score),[19],0.067
same,glycan array binding signal (z-score),Neu5Gc(a2-3)Gal(b1-4)Glc,-0.047
same,glycan array binding signal (z-score),[20],-0.119
same,glycan array binding signal (z-score),[21],0.641
same,glycan array binding signal (z-score),[22],0.026
same,glycan array binding signal (z-score),[23],-0.325
same,glycan array binding signal (z-score),Neu5Gc(a2-6)GalNAc,0.937
same,glycan array binding signal (z-score),[24],-0.302
same,glycan array binding signal (z-score),[25],-0.146
same,glycan array binding signal (z-score),[26],-0.458
same,glycan array binding signal (z-score),[27],-0.204
same,glycan array binding signal (z-score),[28],-0.604
